From article PMC4336329 (PLoS ONE, 2015)
The campaign covered roughly 310,000 compounds. About 14,000 (4.5%) showed an effect of 50% or more. Effects have a minus sign here. The list shows a part of the results.

Biological target: human ether-à-go-go-related gene (hERG) potassium channel (human, UniProt Q12809)
Experiment: primary screen, population patch clamp on CHO cells stably expressing hERG
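Also: peak tail current of the secondary pulse compared with the same well before compound.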

Sequence of human ether-à-go-go-related gene (hERG) potassium channel (Q12809 whole entry, looked up): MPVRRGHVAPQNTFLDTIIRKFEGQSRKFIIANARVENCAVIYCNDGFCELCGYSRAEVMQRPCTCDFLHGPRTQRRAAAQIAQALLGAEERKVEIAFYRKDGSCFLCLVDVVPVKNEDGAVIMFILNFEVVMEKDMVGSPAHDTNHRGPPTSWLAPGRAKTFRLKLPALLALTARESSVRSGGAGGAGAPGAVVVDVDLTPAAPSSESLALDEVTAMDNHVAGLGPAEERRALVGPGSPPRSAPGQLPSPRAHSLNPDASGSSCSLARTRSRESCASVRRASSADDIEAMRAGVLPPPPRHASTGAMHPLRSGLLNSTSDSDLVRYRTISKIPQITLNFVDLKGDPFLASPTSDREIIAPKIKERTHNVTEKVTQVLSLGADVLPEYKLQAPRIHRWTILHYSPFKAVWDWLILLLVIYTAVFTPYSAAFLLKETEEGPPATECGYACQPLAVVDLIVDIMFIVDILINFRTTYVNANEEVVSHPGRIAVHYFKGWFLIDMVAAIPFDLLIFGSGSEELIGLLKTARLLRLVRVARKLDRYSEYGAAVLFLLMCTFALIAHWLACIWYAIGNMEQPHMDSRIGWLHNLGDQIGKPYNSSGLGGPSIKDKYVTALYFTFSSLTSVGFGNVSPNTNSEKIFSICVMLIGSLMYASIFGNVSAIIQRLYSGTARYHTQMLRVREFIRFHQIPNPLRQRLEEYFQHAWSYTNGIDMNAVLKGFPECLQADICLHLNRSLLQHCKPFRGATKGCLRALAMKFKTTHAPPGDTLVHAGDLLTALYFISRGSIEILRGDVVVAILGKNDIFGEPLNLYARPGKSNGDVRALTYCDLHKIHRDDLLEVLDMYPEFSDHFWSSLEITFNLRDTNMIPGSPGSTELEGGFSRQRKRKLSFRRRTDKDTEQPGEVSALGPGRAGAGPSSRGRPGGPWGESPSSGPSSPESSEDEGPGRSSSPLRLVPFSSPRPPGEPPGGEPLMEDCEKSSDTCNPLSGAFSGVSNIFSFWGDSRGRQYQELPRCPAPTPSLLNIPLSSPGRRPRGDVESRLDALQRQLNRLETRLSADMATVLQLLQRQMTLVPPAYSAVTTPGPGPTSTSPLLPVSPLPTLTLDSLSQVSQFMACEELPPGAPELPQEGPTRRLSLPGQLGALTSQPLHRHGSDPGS

SMILES | hERG current change (%, negative = inhibition) at 10uM [%]
CCN(C(=O)CN(C)Cc1cccc(Cl)c1Cl)c1c(N)n(Cc2ccccc2)c(=O)[nH]c1=O | 7.1
CN1CCN(c2ccc(S(=O)(=O)N3CCCCC3)cc2NC(=O)c2cccc([N+](=O)[O-])c2)CC1 | -65.8
CCCNC(=O)CCc1c(C)nc2nc(-c3cc(OC)cc(OC)c3)nn2c1C | -17.7
CC(C)CCNC(=O)NC(=O)CSc1nnc(COc2ccccc2Cl)o1 | -30.2
N#CCc1ccc(NC(=O)c2cc(S(=O)(=O)N3CCOCC3)ccc2Cl)cc1 | 1.8
CCNc1c(NC(=O)COc2ccc(Cl)cc2)c(=O)oc2ccccc12 | -17.1
COc1ccc(N2C(=O)C3CCCN3C2c2cccc(C)c2)cc1 (stereo not drawn) | 4.65
CSCCC(NC(=O)c1ccccc1Br)C(=O)NCCCn1nc(C)cc1C (stereo not drawn) | -16.6
O=C1Nc2ccccc2C1(O)C/C(=N/O)c1ccccc1 (stereo not drawn) | 6.77
CCOC(=O)C1=C(COC(=O)c2c(OC)cccc2OC)NC(=O)NC1C (stereo not drawn) | -3.86
CN(c1ccccc1C(=O)Nc1ccc2c(c1)OCCO2)S(C)(=O)=O | -8.65
O=C(O)/C(=C\c1ccc(Cl)cc1)c1ccc(S(=O)(=O)N2CCCC2)s1 | -33.9
O=C(COc1ccccc1)NC(=S)Nc1ccc2c3c(cccc13)CC2 | 4.16
CC1=C(C(=O)Nc2cccc(C(=O)NC3CCCCC3C)c2)SCCO1 (stereo not drawn) | -17.8
O=C(NCCN1CCNC1=O)C1CCC(=O)N(Cc2ccccc2F)C1 (stereo not drawn) | 0.273
Cc1ccc(-c2cc(C(F)(F)F)n3ncc(C(=O)NCc4ccco4)c3n2)cc1 | -5.6
O=C(O)CSc1nnc(-c2ccncc2)n1CCc1ccccc1 | -2.09
COCCNC(=O)C1CCN(S(=O)(=O)N2CCC3(CC2)OCCO3)CC1 | 15.7
Cc1[nH]c2ccccc2c1C(=O)CSc1nncn1C | 11
O=C(O)CCCC(=O)Nc1ccc(N=Nc2ccccc2)cc1 | 14.5
CC(=O)Nc1ccc(-c2csc(NC(=O)CCCc3cccs3)n2)cc1 | 6.06

SMILES | hERG current change (%, negative = inhibition) at 10uM [%]
COc1cc([C@H]2[C@@H]3CCCC[C@]3(O)CCN2CC(=O)Nc2ccc(C)cc2C)ccc1O | -11
O=C(Cn1c(=O)cnc2ccccc21)N1CCN(S(=O)(=O)c2ccccc2Br)CC1 | 11
CCOC(=O)c1c(CSc2ccc(CC)cc2)oc2ccc(O)c(CN(C)C)c12.Cl | -55.3
O=C(CC(c1ccccc1)c1ccco1)N1CCOCC1 (stereo not drawn) | -4.08
COCCN(C(=O)C1CC1)c1nnc(-c2ccc(C)cc2)s1 | 16.5
CC1Cc2ccccc2N1C(=O)COC(=O)c1ccc(Cl)c(S(=O)(=O)N2CCOCC2)c1 (stereo not drawn) | -49.9
O=C(CN1C(=O)C2C3c4ccccc4C(c4ccccc43)C2C1=O)Nc1ccccc1C(=O)O (stereo not drawn) | 10.4
CCOC(=O)c1ccc(NC(=O)c2cc(F)c(F)cc2Cl)cc1 | -6.48
Cc1ccc(Nc2nc(N)[nH]c(=O)c2N=O)cc1 | 27.6
COCCN(C(=O)COC(=O)Cc1cccc2ccccc12)c1c(N)n(Cc2ccccc2)c(=O)[nH]c1=O | -23.1
CC1=CC=CN2C1=NC(=O)CC2(C)C(=O)N(CC(=O)NC1CCCC1)c1ccccc1C (stereo not drawn) | 18.8
CC(C)C(=O)NNC(=O)CSc1nnnn1C(C)C | 13
COc1ccccc1OCc1ccc(C(=O)N/N=C/c2ccco2)cc1 | 13
O=C(NC(=S)Nc1ccc(Cl)c(C(=O)O)c1)c1ccc(OCc2ccccc2)cc1 | 15.1
OCCCn1c(C2CCCN2c2nc(-c3ccc(F)cc3)cs2)nc2cc(C(F)(F)F)ccc21 (stereo not drawn) | -21
Cc1ccc(S(=O)(=O)CC(=O)Nc2nnc(C)s2)cc1 | -4.92
O=C(Nc1ccc(Cl)cc1)c1ccc(S(=O)(=O)N2CCOCC2)cc1 | -0.19
Cc1nn(C)c(C)c1/C=C/C(=O)c1ccc(Cl)cc1Cl | -18.2
C/C(=N\NC(=O)c1cccs1)C(C)(C)C | 5.21
CN(CC(=O)Nc1ccccc1C(F)(F)F)C(=O)C1CCN(S(=O)(=O)c2ccc3c(c2)OCCO3)CC1 | -3.2
COc1ccccc1NC(=S)NC(NC(=O)CC(C)C)C(Cl)(Cl)Cl (stereo not drawn) | 22.2

SMILES | hERG current change (%, negative = inhibition) at 10uM [%]
O=C(Nc1ccc(OCC(=O)N2CCOCC2)cc1)c1ccccc1F | 11.7
N/C(=N\S(=O)(=O)c1ccc(Cl)s1)c1ccccc1 | -11.8
Cc1ccccc1NC(=O)Cc1nc(COC(=O)CNS(=O)(=O)c2cccc(Br)c2)cs1 | -14
CCC(C)Nc1nc(N)c([N+](=O)[O-])c(Nc2ccccc2OC)n1 (stereo not drawn) | -17.4
COc1ccc(/C=C2\SC(=S)N(CCC(=O)NC3=NCCS3)C2=O)cc1OC | 7.22
C/C(=N\NC(=O)c1nnn(-c2nonc2N)c1CN(C)c1ccccc1)c1ccccc1O | 20.3
CC(=O)NC1(c2ccc(F)cc2)CCN(C(=O)Nc2ccc(F)cc2F)CC1 | 2.01
O=c1c2ccccc2nc(/C=C/c2ccccc2)n1CCc1ccccc1 | -5.9
COc1ccc(N(CC(=O)NC2CCCCC2)C(=O)CNC(=O)c2cccs2)cc1 | -11.8
COc1ccccc1-c1coc2c(CN3CCOCC3)c(O)ccc2c1=O | 8.17
CCS(=O)(=O)c1ccc(O)c(NC(=O)COc2ccc(C)cc2)c1 | -30.2
O=C(CSc1ncnc2c1oc1ccccc12)NCc1ccc(F)cc1 | -5.72
COc1ccc(/C=C2\Oc3cc(OCC(=O)N4CCC(C(=O)O)CC4)ccc3C2=O)c(OC)c1OC | 9.72
O=C(CSc1nnc(COc2ccc(Cl)cc2)n1Cc1ccco1)c1ccccc1F | 13.1
COC(=O)C1=C(C)N(c2ccc(F)cc2)C(=O)C1 | -2.42
COc1ccc(NC(C)=O)cc1NC(=O)c1cccc(C(F)(F)F)c1 | -15.4
CN(C)CCC(Oc1ccccc1OCc1ccccc1)c1ccccc1.O=C(O)C(=O)O (stereo not drawn) | -68.6
Nc1ccc(S(=O)(=O)Nc2nccs2)cc1 | 14.8
COc1ccccc1N1CCN(C(=S)Nc2ccc3nc(N4CCOCC4)cc(C)c3c2)CC1 | -49.3
CCCc1[nH]n(-c2ccc(F)cc2)c(=O)c1C=Nc1cccc(F)c1 | 11.9
O=C(CCS(=O)(=O)c1ccccc1)Nc1ccccc1N1CCOCC1 | -8.2

SMILES | hERG current change (%, negative = inhibition) at 10uM [%]
CC1CC(C)CN(C(=O)C(C)N(C)CC(=O)Nc2ccc(F)cc2)C1 (stereo not drawn) | -20.6
Cl.Nc1cccc(Oc2c(F)c(F)c(Oc3cccc(N)c3)c(F)c2F)c1 | 5.82
COc1ccc(NC(=O)c2ccc(CN3CCc4ccccc4C3)cc2)cc1OC | 11.4
CCOC(=O)C1(Cc2ccccc2C(F)(F)F)CCN(C2CCC2)CC1 | -36.6
Cc1cc(=O)[nH]c2ccc(S(=O)(=O)Nc3ccc(O)cc3)cc12 | 20.9
CCc1ccc(NC(=O)CSc2ccc(-c3cccnc3)nn2)cc1 | -23.2
Cl.Oc1ccccc1Nc1nc(NCC2CCCO2)c2ccccc2n1 (stereo not drawn) | -67.5
CN(C)c1ccnc2sc3c(=O)n(Cc4ccccc4)cnc3c12 | -51
Cc1c(Cl)cccc1N1C(=O)C(N2C(=O)c3cccc([N+](=O)[O-])c3C2=O)C1c1cccs1 (stereo not drawn) | 7.24
Cc1ccc(C(=O)COC(=O)c2cc(=O)[nH]c3ccccc23)cc1C | 15.3
O=c1c(-c2cccc(Cl)c2)c[nH]n1-c1ccccc1 | 25.5
CC(=O)c1sc(NC(=O)c2cc(-c3ccccc3)nn2-c2ccccc2)nc1C | 16.2
CC(C)c1c(O)nc(SCC(=O)Nc2ccc3c(c2)CCC3)[nH]c1=O | 10.3
CN1C(=O)/C(=C/c2ccc(-c3ccccc3[N+](=O)[O-])o2)SC1=Nc1ccc(Cl)c(C(=O)O)c1 | 7.25
O=C1c2ccccc2N2C(=O)c3ccccc3C2N1Cc1ccccc1 (stereo not drawn) | -57.9
COc1ccc(-c2nnn(CC(=O)N(CC3CCCO3)C(C(=O)NC(C)(C)C)c3ccco3)n2)cc1OC (stereo not drawn) | -1.6
CC1CCN(C(=O)Cn2c(=O)n(CCCC(=O)NCc3ccco3)c(=O)c3sccc32)CC1 | 5.2
Cc1cc(C)c2cc(C#N)c(NCCCNC(=O)CCC(=O)O)nc2c1 | 12.2
Cc1ccc(C(=O)N2CCc3ccccc3C2)cc1S(=O)(=O)N1CCOCC1 | -31.1
COc1ccc(CC(=O)NCc2cccs2)cc1 | 5.8
CNC(=O)N(C1=NCCCCC1)c1ccc(Br)cc1 | -7.48
